Measured values from US5266328A, “Laminin a chain polypeptides from the carboxy terminal globular domain” (Regents of the University of Minnesota, priority 1990, dated 1993).
At least one peptide structure holds a part that was inferred or is arguable (an end, a ring closure or a residue). Ends that are not written are not given here.

Key:
Type in all cases: cell-based
[1] = tested on: human renal (SN12C) cells; assay: Cell spreading assay; conditions: wells coated at 100 μg/ml, 2 1/2 hour incubation
Procedure: (§1) Spreading of the adherent cells was evaluated by performing adhesion assays similar to those described above. Twenty-four well tissue culture plates (Becton Dickinson and Co., Lincoln Park, N.J.) were coated with 300 μl of laminin, synthetic peptides, or BSA at 100 μg/ml, then blocked with 2 mg/ml BSA in PBS. Three hundred microliters of a cell suspension at 5×10^4 cells/ml was added to each well, and after a 21/2 hour incubation, nonadherent cells were aspirated out of the wells. Adherent cells were fixed with 2% glutaraldehyde in PBS at 23° C. for one hour. The glutaraldehyde was then removed and the cells were stained by two different techniques. For photographic purposes, the cells were stained with Diff-Quik Solution I (American Scientific Products, McGaw Park, Ill.) for 10 minutes at 23° C. Solution I was removed, then Diff-Quik Solution II was added and the cells were stained for another 10 minutes at 23° C. Wells were washed with PBS, then representative cells were photographed with a Nikon DIAPHOT inverted phase microscope using Panatomic X Film ASA32 (Eastman Kodak, Rochester, N.Y.). Adherent cells to be quantitated for spreading were stained overnight at 23° C. with 500 μl of a solution containing 0.12% (w/v) Coomassie Brilliant Blue R (Sigma Chemical Co.), 5% (v/v) acetic acid, and 50% (v/v) ethanol. Wells were washed three times with 500 μl of PBS and cell spreading was then quantitated by measuring the average surface area occupied by a cell using an Opti-Max Image Analyzer. Thirty cells were measured per well; each experiment was done in quadruplicate and repeated three times. In all cases, the cells spread on the peptides to occupy an area about 60% of that seen on laminin-coated surfaces.

[2] = tested on: murine fibrosarcoma (MM) cells; assay: Inhibition of cell adhesion to laminin-coated surfaces; conditions: soluble peptide 10 μg/ml, surface coated with 1.5 μg of laminin
Excerpt: (§2) The murine melanoma K-1735-C10 (low metastatic) and K-1735-M4 (high metastatic) cell lines, murine UV-2237-MM fibrosarcoma cell line, human renal carcinoma SN12 C (low metastatic) and SN12 PM-6 (high metastatic) cell lines, and human colon carcinoma KM12 C (low metastatic) and KM12 SM (high metastatic) cell lines were originally provided by Dr. I. J. Fidler (M.D., Anderson Hospital, University of Texas Health Sciences Center, Houston, Tex.). The human fibrosarcoma HT-1080 cell line was obtained from the ATCC. The MM fibrosarcoma cell line was maintained in DME (GIBCO Laboratories, Grand Island, N.Y.) containing 10% FBS, the murine melanomas were maintained in DMEM containing 10% calf serum, the human fibrosarcoma cells were maintained in EMEM containing 10% heat inactivated FBS, and the human renal and colon carcinoma cells were grown in EME containing 10% FBS, vitamins, and 1 mM sodium pyruvate. Cells were passaged for 4 to 5 weeks and then replaced from frozen stocks of early passage cells to minimize phenotypic drift. Cells were maintained at 37° C. in a humidified incubator containing 5% CO2.
(§3) Inhibition of cell adhesion with synthetic peptides was performed using assays similar to those described by Skubitz et al., supra (1987). Briefly, radiolabeled cells at 5×10^4 /ml were incubated for 30 minutes with various concentrations of synthetic peptides (1.0 μg/ml-200 μg/ml) in DME/Hepes containing 2 mg/ml BSA. One hundred microliters of the cell suspension was then added to wells precoated with 1.5 μg of laminin, 1.0 μg of type IV collagen, or 1.0 μg of fibronectin. The cells were incubated for 30 minutes at 37° C., then the wells were washed and adherent cells were quantitated as previously described [Skubitz et al., supra (1987)]. Cell viability after a one hour incubation in the presence of the "inhibitors" was assessed by trypan blue dye exclusion.

[3] = tested on: human renal (SN12 PM6) cells; assay: as above; conditions: soluble peptide 10 μg/ml, surface coated with 1.5 μg of laminin
Excerpt: as §2, §3

[4] = tested on: human colon (KM12 C) cells; assay: as above; conditions: soluble peptide 10 μg/ml, surface coated with 1.5 μg of laminin
Excerpt: as §2, §3

[5] = tested on: murine melanoma (M4) cells; assay: as above; conditions: soluble peptide 10 μg/ml, surface coated with 1.5 μg of laminin
Excerpt: as §2, §3

[6] = tested on: human fibrosarcoma (HT1080) cells; assay: as above; conditions: soluble peptide 20 μg/ml, surface coated with 1.5 μg of laminin
Excerpt: as §2, §3

[7] = tested on: murine melanoma (C10) cells; assay: as above; conditions: soluble peptide 10 μg/ml, surface coated with 1.5 μg of laminin
Excerpt: as §2, §3

[8] = tested on: human renal (SN12C) cells; assay: as above; conditions: soluble peptide 10 μg/ml, surface coated with 1.5 μg of laminin
Excerpt: as §2, §3

[9] = tested on: murine fibrosarcoma (MM) cells; assay: Cell spreading assay; conditions: wells coated at 100 μg/ml, 2 1/2 hour incubation
Procedure: as §1

[10] = tested on: human renal (SN12 PM6) cells; assay: Cell spreading assay; conditions: wells coated at 100 μg/ml, 2 1/2 hour incubation
Procedure: as §1

[11] = tested on: human fibrosarcoma HT-1080 cell line; assay: Direct cell adhesion to peptide-coated surfaces
Excerpt: as §2
The direct adhesion of cells to protein or peptide coated surfaces was performed as described in Skubitz et al., Exp. Cell Res., 173, 349-360 (1987) and Charonis et al., supra (1988). Briefly, radiolabeled cells were added to 96-well microtiter plates coated with various concentrations of synthetic peptides, laminin, or BSA (0.02 μg/well-50 μg/well from 50 μl solutions) for various lengths of time. After the incubation period, loosely or nonadherent cells were removed by washing the wells three times. Adherent cells were solubilized and quantitated in a scintillation counter. […] The solubilized cells were then quantitated using a liquid scintillation counter.
Instead of attempting to characterize the cell binding activity of all 14 of the synthetic peptides, a number of peptides from each of the three heparin binding categories of peptides were evaluated. […]
Radiolabeled HT-1080 human fibrosarcoma cells were incubated in the wells for 30 minutes and the adhesion of cells was quantitated.

Sequence	Surface Area Occupied by a Cell [1] [μm^2]	Percentage Inhibition of Laminin-Mediated Cell Adhesion [2] [%]	Percentage Inhibition of Laminin-Mediated Cell Adhesion [3] [%]	Percentage Inhibition of Laminin-Mediated Cell Adhesion [4] [%]	Percentage Inhibition of Laminin-Mediated Cell Adhesion [5] [%]	Percentage Inhibition of Laminin-Mediated Cell Adhesion [6] [%]	Percentage Inhibition of Laminin-Mediated Cell Adhesion [7] [%]	Percentage Inhibition of Laminin-Mediated Cell Adhesion [8] [%]	Surface Area Occupied by a Cell [9] [μm^2]	Surface Area Occupied by a Cell [10] [μm^2]	maximal cell adhesion ([11]; HT-1080 cells, 30 minutes, wells adsorbed with 1 μg of peptide (FIG. 4))	HT-1080 cell adhesion, in words ([11]; increasing concentrations adsorbed, up to 5 μg/well, 30 minutes (FIG. 4))
GRLHFMFDLGKGRTKVSHP [Peptide R27, GRLHFMFDLGKGRTKVSHP]	312 ± 18	56	76	72	82	84	7	37	–	–	–	–
GTKDFLSIELVRGRVKVMVD [Peptide R33]	288 ± 21	21	79	76	–	51	0	7	286 ± 22	287 ± 17	–	–
HSISLVRNRRVITIQ [Peptide R36, HSISLVRNRRVITIQ]	–	0	42	0	–	20	94	0	–	–	–	–
KATPMLKMRTSFHGCIK [Peptide R37, KATPMLKMRTSFHGCIK]	–	49	48	62	81	47	0	52	–	–	–	–
KEGYKVRLDLNITLEFRTTSK [Peptide R38]	–	56	53	64	59	28	41	4	–	–	approximately 90%	concentration-dependent, saturable manner
